The test system of this assay is V-C8 + BRCA2 (BRCA2-proficient hamster cells). Put plainly: normalised cell viability (fraction of plate median); higher = more viable cells (less toxic). The settings on record: 5 µM. The procedure, abridged: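 Hamster V-C8 cells lacking BRCA2 and V-C8 cells with BRCA2 restored were seeded in 96-well plates. Library drugs (10 mM DMSO stocks) were added 24 h later at 5 μM in 100 μl medium, next to DMSO control wells, for 3 days (screen 1) or 6 days (screen 2). Cell viability was read by resazurin assay, median-plate normalised (modified robust per cent of sample), and triplicate wells were averaged.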

Counter-ions that a name gives are not always drawn. ± gives the standard deviation of the averaged measurements. Whole data set: some 1,300 compounds, median “normalised cell viability” near 1, cut for the lowest 2% near 0.15. This is one part of the list.

For `CCN1C(=O)NC(c2ccccc2)C1=O` (stereo unspecified) [Ethotoin], the normalised cell viability (treatment time: 3 days) turned out to be 1.03 ± 0.044 and the normalised cell viability (treatment time: 6 days) is 0.927 ± 0.087.

For the compound `COc1ccccc1N1CCN(CC(O)COc2cccc3ccccc23)CC1` (stereo unspecified) [Naftopidil dihydrochloride], the normalised cell viability is, setting by setting: (treatment time: 3 days) 0.897 ± 0.069; (treatment time: 6 days) 0.905 ± 0.033.

In the case of `CN1CCCC(CC2c3ccccc3Sc3ccccc32)C1` (stereo unspecified) [Metixene hydrochloride], the normalised cell viability by setting is: (treatment time: 3 days) 0.867 ± 0.014; (treatment time: 6 days) 0.888 ± 0.012.

For the compound `CN1CCC(=C2c3ccccc3CC(=O)c3sccc32)CC1` [Ketotifen fumarate], the normalised cell viability (treatment time: 3 days) was determined as 1.08 ± 0.022 and the normalised cell viability (treatment time: 6 days) turned out to be 1.07 ± 0.076.

Take `COc1ccc2c(c1)N(C[C@H](C)CN(C)C)c1ccccc1S2` [Methotrimeprazine maleat salt]: the normalised cell viability (treatment time: 3 days) is 0.896 ± 0.044 and the normalised cell viability (treatment time: 6 days) stood at 0.902 ± 0.097.

Consider `CCCN(CCC)C(=O)C(CCC(=O)O)NC(=O)c1ccccc1` (stereo unspecified) [Proglumide], for which the normalised cell viability (treatment time: 3 days) came out at 0.993 ± 0.11 and the normalised cell viability (treatment time: 6 days) came out at 0.986 ± 0.14.

In the case of `COc1cc(OC)c(C(=O)CCCN2CCCC2)c(OC)c1` [Buflomedil hydrochloride], the normalised cell viability (treatment time: 3 days) is 1.04 ± 0.096 and the normalised cell viability (treatment time: 6 days) worked out at 1.07 ± 0.025.

`N#CC(c1ccc(Cl)cc1)c1c(Cl)cc(-n2ncc(=O)[nH]c2=O)cc1Cl` (stereo unspecified) [Diclazuril]: the normalised cell viability (treatment time: 3 days) came out at 0.946 ± 0.021 and the normalised cell viability (treatment time: 6 days) was determined as 0.912 ± 0.037.

Regarding `CC(C)(S)[C@@H](N)C(=O)O` [Penicillamine], the normalised cell viability is, setting by setting: (treatment time: 3 days) 1.05 ± 0.046; (treatment time: 6 days) 1.04 ± 0.06.

For the compound `Cc1cc(C(=O)NNCc2ccccc2)no1` [Isocarboxazid], the normalised cell viability worked out at 0.947 ± 0.0096 (treatment time: 3 days) and 1.02 ± 0.26 (treatment time: 6 days).

As for `COc1ccc(-c2ccc(=N)n(CCCC(=O)O)n2)cc1` [Gabazine bromide], the normalised cell viability (treatment time: 3 days) was found to be 1 ± 0.1 and the normalised cell viability (treatment time: 6 days) worked out at 1.03 ± 0.082.

Take `CO[C@H]1C[C@H](O[C@H]2[C@H](C)[C@@H](O[C@@H]3O[C@H](C)C[C@H](N(C)C)[C@H]3OC(C)=O)[C@@H](C)C[C@@]3(CO3)C(=O)[C@H](C)[C@@H](OC(C)=O)[C@@H](C)[C@@H](C)OC(=O)[C@@H]2C)O[C@@H](C)[C@@H]1OC(C)=O` [Troleandomycin]: the normalised cell viability is, setting by setting: (treatment time: 3 days) 1.08 ± 0.027; (treatment time: 6 days) 1.06 ± 0.04.

Take `Cn1c(=O)c2c(ncn2CC(=O)O)n(C)c1=O` [Acefylline]: the normalised cell viability came out at 1.02 ± 0.054 (treatment time: 3 days) and 1.01 ± 0.035 (treatment time: 6 days).

As for `CN(C)CC/C=C1\c2ccccc2CSc2ccccc21` [Dosulepin hydrochloride], the normalised cell viability stood at 0.175 ± 0.0046 (treatment time: 3 days) and 0.175 ± 0.011 (treatment time: 6 days).

On to `CC(C)(Oc1ccc(Cl)cc1)C(=O)O` [Clofibric acid], for which the normalised cell viability is, setting by setting: (treatment time: 3 days) 1.02 ± 0.032; (treatment time: 6 days) 1.01 ± 0.017.

Take `CS(=O)(=O)c1ccc(C2=C(c3ccccc3)C(=O)OC2)cc1` [Rofecoxib]: the normalised cell viability is, setting by setting: (treatment time: 3 days) 1 ± 0.039; (treatment time: 6 days) 1.02 ± 0.06.

Consider `Cn1c(=O)c2[nH]cnc2n(C)c1=O` [Aminophylline], for which the normalised cell viability (treatment time: 3 days) was 1.14 ± 0.076 and the normalised cell viability (treatment time: 6 days) is 1.08 ± 0.035.

With `Cc1ccnc2c1NC(=O)c1cccnc1N2C1CC1` [Nevirapine], the normalised cell viability reads like this: (treatment time: 3 days) 1.03 ± 0.087; (treatment time: 6 days) 1.05 ± 0.047.

For `CN(C)CCC=C1c2ccccc2CCc2ccccc21` [Amitryptiline hydrochloride], the normalised cell viability by setting is: (treatment time: 3 days) 0.926 ± 0.036; (treatment time: 6 days) 0.985 ± 0.098.

With `Cc1[nH]c(=O)c(C#N)cc1-c1ccncc1` [Milrinone], the normalised cell viability by setting is: (treatment time: 3 days) 1.06 ± 0.031; (treatment time: 6 days) 1.02 ± 0.098.

In the case of `C[C@]12CC[C@H]3C(=CCc4cc(O)ccc43)[C@@H]1CCC2=O` [Equilin], the normalised cell viability is, setting by setting: (treatment time: 3 days) 1.04 ± 0.092; (treatment time: 6 days) 1.03 ± 0.083.

On to `C=C[C@H]1CN2CC[C@H]1C[C@@H]2[C@@H](O)c1ccnc2ccc(OC)cc12` [Quinidine hydrochloride monohydrate], for which the normalised cell viability is, setting by setting: (treatment time: 3 days) 0.996 ± 0.033; (treatment time: 6 days) 0.972 ± 0.046.

On to `Cc1cccc(C)c1NC(=O)C1CCCCN1C` (stereo unspecified) [Mepivacaine hydrochloride], for which the normalised cell viability is 1.13 ± 0.18 (treatment time: 3 days) and 1.04 ± 0.028 (treatment time: 6 days).

For the compound `CN1C(C(=O)Nc2ccccn2)=C(O)c2sccc2S1(=O)=O` [Tenoxicam], the normalised cell viability by setting is: (treatment time: 3 days) 1.04 ± 0.016; (treatment time: 6 days) 0.973 ± 0.022.

Turning to `Cc1ncc([N+](=O)[O-])n1CC(O)CCl` (stereo unspecified) [Ornidazole], the normalised cell viability by setting is: (treatment time: 3 days) 0.996 ± 0.069; (treatment time: 6 days) 0.9741 ± 0.0077.

`COc1cc2c(cc1OC)C(=O)C(CC1CCN(Cc3ccccc3)CC1)C2` (stereo unspecified) [Donepezil hydrochloride]: the normalised cell viability is, setting by setting: (treatment time: 3 days) 1.007 ± 0.0092; (treatment time: 6 days) 1.05 ± 0.074.

For the compound `CCCCC(CC)CN1CN(CC(CC)CCCC)CC(C)(N)C1` (stereo unspecified) [Hexetidine], the normalised cell viability (treatment time: 3 days) was found to be 1.03 ± 0.044 and the normalised cell viability (treatment time: 6 days) came out at 0.997 ± 0.093.

Turning to `O=C(CCCN1CCC(O)(c2ccc(Br)cc2)CC1)c1ccc(F)cc1` [Bromperidol], the normalised cell viability reads like this: (treatment time: 3 days) 0.976 ± 0.027; (treatment time: 6 days) 0.979 ± 0.038.

Regarding `CC(=O)c1ccc2c(c1)N(CCCN1CCC(CCO)CC1)c1ccccc1S2` [Piperacetazine], the normalised cell viability (treatment time: 3 days) is 0.941 ± 0.085 and the normalised cell viability (treatment time: 6 days) was 0.919 ± 0.087.

Consider `CO[C@@]1(NC(=O)Cc2cccs2)C(=O)N2C(C(=O)O)=C(COC(N)=O)CS[C@@H]21` [Cefoxitin sodium salt], for which the normalised cell viability is, setting by setting: (treatment time: 3 days) 1 ± 0.024; (treatment time: 6 days) 1.05 ± 0.037.

`COc1cc(Cc2cnc(N)nc2N)cc(OC)c1OC` [Trimethoprim]: the normalised cell viability is 1.05 ± 0.019 (treatment time: 3 days) and 1.07 ± 0.027 (treatment time: 6 days).

With `COCC1=C(C(=O)OC(C)OC(=O)OC(C)C)N2C(=O)[C@@H](NC(=O)/C(=N\OC)c3csc(N)n3)[C@H]2SC1` (stereo partly specified) [Cefpodoxime proxetil], the normalised cell viability worked out at 1.03 ± 0.046 (treatment time: 3 days) and 1.01 ± 0.05 (treatment time: 6 days).

As for `CCN(CC)CCOC(=O)C(c1ccccc1)C1CCCCC1` (stereo unspecified) [Drofenine hydrochloride], the normalised cell viability reads like this: (treatment time: 3 days) 1.02 ± 0.066; (treatment time: 6 days) 1.02 ± 0.025.
